PubChem BioAssay AID624296 (National Center for Advancing Translational Sciences (NCATS), 2012)
The whole screen tested about 350,000 compounds, of which about 9,900 (2.8%) were called active. This list was built around the results that the source calls inconclusive (neither active nor inactive); the mix of calls is not that of the screen. Calls follow the shape of the dose curve; as a rule, active = well fitted activation curve with a large enough effect; inconclusive = small, poorly fitted or top-dose-only effect; inactive = no such curve, though single readings can be large or run the other way. No potency is given beside an inconclusive call; the fits are too rough.

assay: A quantitative high throughput screen for small molecules that induce DNA re-replication in MCF 10a normal breast cells.; also: nearly all actives have a fitted effect of over 50% in size; as to activity, positive = re-replication: % of control where 0% means no effect; settings: MCF 10A DNA re-replication, Hoechst nuclear intensity, 48 h; activity, positive = re-replication: at 46.1 µM (top of the series)
Potency is read from the fitted curve at half-maximal effect; tags tell the direction and shape of the fitted curve.

| Compound | Potency | activity, positive = re-replication |
| --- | --- | --- |
| COc1cc(-c2nc(-c3ccc4c(c3)-c3ccccc3S4(=O)=O)c(-c3ccccc3)[nH]2)cc(OC)c1O | inconclusive [activator, partial curve, poor fit] | – |
| COc1cccc(NC(=O)c2ccc(NC(C)=O)cc2)c1 | inactive | – |
| CCOC(=O)[C@@H]1[C@H]2COc3ccc(Br)cc3[C@@H]2N2C(=O)N(c3ccc(Cl)cc3)C(=O)[C@@]12C | inconclusive [activator, single point] | – |
| COc1cc(/C=C2/C(=O)NN(c3cccc(F)c3)C2=O)ccc1OC(=O)c1ccco1 | inconclusive [activator, single point] | – |
| COc1cccc(-c2c(C(=O)N/N=C/c3ccc(C)s3)nnn2-c2nonc2N)c1 | inactive | – |
| COc1ccc(N(C(=O)CCl)C(C(=O)NCCc2ccccc2)c2cccs2)cc1Cl (stereo unspecified) | active: 6.51 µM | – |
| COc1cc(C(=O)N/N=C/c2ccccn2)cc(OC)c1OC | active: 20.6 µM | – |
| O=C(O)Cc1ccc(NS(=O)(=O)c2ccccc2Br)cc1 | inconclusive [activator, partial curve, poor fit] | – |
| O=C(Nc1nc(-c2ccccc2)cs1)c1ccc2c(=O)n3c(nc2c1)CCCCC3 | active: 18.4 µM | – |
| C[C@@H](c1ccccc1)N1C[C@H]2CCCN2c2cc(Br)ccc2S1(=O)=O | active: 7.31 µM | – |
| CS(=O)(=O)Nc1ccccc1C(=O)NCC1(N2CCCCC2)CCCCC1 | inactive | – |
| O=C(NCCN1CCN(c2ccccc2)CC1)Nc1cccc(Br)c1 | inactive | – |
| CCOC(=O)CC(=O)CSc1nc(-c2ccccc2)cc(-c2ccccc2)c1C#N | inconclusive [activator, single point] | – |
| COc1ccc(S(=O)(=O)NCC2CCCN(C(=O)CC3CCCC3)C2)cc1 (stereo unspecified) | inconclusive [activator, partial curve, poor fit] | – |
| COC(=O)c1sc(C(F)(F)F)c(-c2ccccc2)c1S(=O)(=O)N1CCCC1 | inactive | – |
| Fc1ccccc1N1CCN(Cc2nc(-c3ccc(Cl)cc3Cl)no2)CC1 | inconclusive [activator, partial curve, poor fit] | – |
| Cc1ccc(-n2ncc3c(SCc4ccccn4)ncnc32)c(C)c1 | inconclusive [activator, partial curve, poor fit] | – |
| Cc1cc(OCC(=O)Nc2ccc(S(=O)(=O)N3CCN(C)CC3)cc2)ccc1Cl | inconclusive [activator, partial curve] | – |
| O=C(OCc1ccccc1)N1CCOCCN(C(=O)OCc2ccccc2)CCOCC1 | inconclusive [activator, single point] | – |
| O=C1C(O)=C(O)C(=O)c2ccccc21 | inconclusive [activator, single point] | – |
| Cc1nnc(SCC(=O)Nc2c(Cl)cccc2Cl)[nH]c1=O | inactive | – |
| Cc1ccc(NS(=O)(=O)c2ccc(-c3cnc(C4CC4)o3)cc2)c(C)c1 | active: 0.731 µM | – |

| Compound | Potency | activity, positive = re-replication |
| --- | --- | --- |
| CCOC(=O)/C(N=Nc1ccc(C(=O)O)cc1[N+](=O)[O-])=C(\C)O | active: 3.66 µM | – |
| O=C(COc1cccc(NC(=O)c2cccs2)c1)c1ccc(F)cc1 | inconclusive [activator, single point] | – |
| COc1ccc(-c2cc(C(F)(F)F)c3c(N)c(C(=O)NCCSC)sc3n2)cc1 | inconclusive [activator, partial curve] | – |
| COc1ccc(S(=O)(=O)Nc2ccccc2OC)cc1NC(=O)CC1CC2CCC1C2 (stereo unspecified) | inconclusive [activator, single point] | – |
| Cc1cccc(C2=NN(c3ccccc3)[C@@H](C(=O)N3CCOC3=O)[C@@H]2c2ccc(F)cc2)c1 | inconclusive [activator, partial curve, poor fit] | – |
| O=C1OC(c2ccccc2)(c2cc(Br)ccc2O)c2ccccc21 (stereo unspecified) | inconclusive [activator, single point] | – |
| COc1ccc2[nH]c3c(N4CCN(Cc5ccc6c(c5)OCO6)CC4)ncnc3c2c1 | inconclusive [activator, single point] | – |
| Cc1ccc(/C=C/C(=O)Nc2ccccc2C(N)=O)cc1 | inconclusive [activator, single point] | – |
| CC[n+]1ccc(/C=C/c2ccc(N(C)C)cc2)c2ccccc21 | inactive | – |
| O=C(Nc1ccccc1N1CCOCC1)C1=NN(c2ccccc2)C(=O)CC1 | inconclusive [activator, full curve] | – |
| CCC(CC)=NNc1cccc([N+](=O)[O-])c1 | inactive | – |
| Cc1cc(Cl)cc(C)c1OCCn1ccnc1 | inconclusive [activator, partial curve, poor fit] | – |
| O=C(CSc1n[nH]c(-c2ccccn2)n1)Nc1ccc(F)cc1 | inconclusive [activator, partial curve] | – |
| COc1ccc(NC2=NC3(CCCCC3)N=C(N)N2)cc1 | inactive | – |
| CCOC(=O)Nc1ccc2c(CN3C(=O)NC(CC)(CC)C3=O)cc(=O)oc2c1 | inactive | – |
| Cc1ccccc1CN(CC(=O)Nc1cccc([N+](=O)[O-])c1)S(=O)(=O)c1ccc(Cl)cc1 | inactive | – |
| CCn1c(=O)cc(OCC(=O)Nc2cccc(C)n2)c2ccccc21 | inconclusive [activator, single point] | – |
| C=CCSc1nc2c(C(=O)OCC)nnn2c2ccccc12 | inconclusive [activator, partial curve, poor fit] | – |
| O=C(N/C(=C\c1ccco1)C(=O)N1CCOCC1)c1ccc([N+](=O)[O-])cc1 | – | inconclusive: -53.4% [activator] |
| CC1C(=O)Nc2ccc(S(=O)(=O)N3CCN(c4cccc(C(F)(F)F)c4)CC3)cc2NC1=O (stereo unspecified) | inconclusive [activator, single point] | – |
| Cc1cccc(C(=O)CC(=O)c2cc(Cl)ccc2O)c1 | inconclusive [activator, single point] | – |
| CN1CCN(CCCNC(=O)Nc2cccc3ccccc23)CC1 | inactive | – |

| Compound | Potency | activity, positive = re-replication |
| --- | --- | --- |
| Cc1ccc(C(=O)CSc2nnc(-c3ccccc3)o2)cc1 | inactive | – |
| Cc1ccc(-n2c(SCC(=O)Nc3ncc(Cl)cc3Cl)nc3ccccc32)cc1 | inconclusive [activator, partial curve] | – |
| Cc1cc(NC(=O)C(C)C)ncc1NC(=O)Cc1ccccc1 | inconclusive [activator, single point] | – |
| Clc1ccc(OCCN2CCCCC2)cc1Cl | inconclusive [activator, single point] | – |
| COc1ccc(CCNC(=O)CSc2nc3[nH]ncc3c(=O)n2-c2cccc(C(F)(F)F)c2)cc1OC | inconclusive [activator, single point] | – |
| O=C(c1ccc(CN2CCc3ccccc3C2)cc1)N1CCCCC1 | inactive | – |
| C#CCn1c(=NC(=O)c2cc(-c3cccs3)nc3ccccc23)sc2cc(S(N)(=O)=O)ccc21 | inconclusive [activator, full curve, poor fit] | – |
| O=C(Nc1nc2ccc(Cl)cc2s1)c1ccc(N2CCCCC2)c([N+](=O)[O-])c1 | inconclusive [activator, single point] | – |
| OC(CN1CCc2ccccc2C1)c1ccccc1 (stereo unspecified) | inconclusive [activator, partial curve, poor fit] | – |
| COc1ccc(-c2csc3ncnc(N4CCN(S(=O)(=O)c5ccc(C)cc5)CC4)c23)cc1 | inactive | – |
| CSc1nc2nccc(-c3ccc(Oc4ccccc4)cc3)n2n1 | inconclusive [activator, partial curve] | – |
| CC(C)C[C@@H](CNCC(=O)[C@H](C)NC(=O)c1[nH]cnc1C(=O)N[C@@H](C)CN)NC(=O)c1nc[nH]c1C(=O)N[C@@H](CO)C(=O)O | inconclusive [activator, full curve, poor fit] | – |
| O=c1[nH]c2ccc(S(=O)(=O)N3CCN(c4ccccc4)CC3)cc2[nH]c1=O | inconclusive [activator, single point] | – |
| CC(C)CN(C(=O)C1CCC1)c1c(N)n(Cc2ccccc2)c(=O)[nH]c1=O | inconclusive [activator, single point] | – |
| O=C(COc1ccc(F)cc1Br)NCC1(N2CCOCC2)CCCCC1 | inconclusive [activator, single point] | – |
| CCCN1CCC(NC(=O)c2cccc(Oc3ccccc3)c2)CC1 | inconclusive [activator, full curve, poor fit] | – |
| CC(NC(=S)Nc1ccc(S(=O)(=O)N2CCOCC2)cc1)C1CC2CCC1C2 (stereo unspecified) | inconclusive [activator, single point] | – |
| O=C(Nc1ccccc1)N1CCC(c2nc(-c3ccc(S(=O)(=O)N4CCOCC4)cc3)no2)CC1 | active: 1.84 µM | – |
| CNS(=O)(=O)c1cccc(C(=O)OCc2cc(=O)oc3c(C)c(O)ccc23)c1 | inconclusive [activator, partial curve, poor fit] | – |
| O=C1/C(=C/c2cccc([N+](=O)[O-])c2)CCc2ccccc21 | inconclusive [activator, single point] | – |
| Cc1ccc(SCc2cc(=O)[nH]c(/N=C(\N)Nc3cccc4ccccc34)n2)cc1 | inconclusive [activator, full curve, poor fit] | – |
| COc1cc(NC(=O)C2CC(c3c(F)cccc3Cl)=NO2)c(OC)cc1Cl (stereo unspecified) | inconclusive [activator, partial curve, poor fit] | – |
